# Measured values from article PMC4336329 (PLoS ONE, 2015).
# The whole screen tested about 310,000 compounds, of which about 2,200 (0.71%) showed an effect of 50% or more. Effects have a minus sign here. The list shows a part of the results.
# Biological target: human ether-à-go-go-related gene (hERG) potassium channel (human, UniProt Q12809)
# Test: primary screen, population patch clamp on CHO cells stably expressing hERG
# Sequence of human ether-à-go-go-related gene (hERG) potassium channel (Q12809 whole entry, looked up): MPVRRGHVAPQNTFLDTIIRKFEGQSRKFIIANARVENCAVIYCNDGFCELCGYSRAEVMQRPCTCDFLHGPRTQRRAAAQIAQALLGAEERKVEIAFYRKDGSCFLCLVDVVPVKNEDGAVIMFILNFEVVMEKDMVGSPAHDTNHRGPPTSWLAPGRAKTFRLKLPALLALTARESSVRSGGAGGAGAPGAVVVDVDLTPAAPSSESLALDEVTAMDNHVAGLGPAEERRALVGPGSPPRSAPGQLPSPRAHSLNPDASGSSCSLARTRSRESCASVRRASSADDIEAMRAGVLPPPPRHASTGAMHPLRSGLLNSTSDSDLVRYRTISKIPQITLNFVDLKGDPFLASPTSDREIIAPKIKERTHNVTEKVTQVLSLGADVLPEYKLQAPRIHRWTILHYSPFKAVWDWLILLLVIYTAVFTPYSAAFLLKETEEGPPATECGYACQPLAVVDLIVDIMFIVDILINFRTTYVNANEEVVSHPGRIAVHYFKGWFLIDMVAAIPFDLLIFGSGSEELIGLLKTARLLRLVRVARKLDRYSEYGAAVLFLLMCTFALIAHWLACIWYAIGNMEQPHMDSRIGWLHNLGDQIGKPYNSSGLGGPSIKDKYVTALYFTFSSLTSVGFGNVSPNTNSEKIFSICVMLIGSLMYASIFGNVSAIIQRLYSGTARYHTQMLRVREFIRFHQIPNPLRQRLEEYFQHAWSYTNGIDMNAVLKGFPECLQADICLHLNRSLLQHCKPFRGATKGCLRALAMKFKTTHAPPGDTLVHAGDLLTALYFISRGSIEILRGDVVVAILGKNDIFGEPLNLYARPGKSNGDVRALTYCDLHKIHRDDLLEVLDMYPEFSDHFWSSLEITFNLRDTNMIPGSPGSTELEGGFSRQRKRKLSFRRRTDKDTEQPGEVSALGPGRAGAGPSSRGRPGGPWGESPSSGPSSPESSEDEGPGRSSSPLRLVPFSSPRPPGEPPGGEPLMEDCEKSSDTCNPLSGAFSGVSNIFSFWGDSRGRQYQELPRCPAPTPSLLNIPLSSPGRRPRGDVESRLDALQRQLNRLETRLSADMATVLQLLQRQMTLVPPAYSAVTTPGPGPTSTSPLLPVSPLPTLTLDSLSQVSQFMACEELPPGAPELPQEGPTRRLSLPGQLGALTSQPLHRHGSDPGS
row,SMILES,"hERG current change (%, negative = inhibition) at 1uM"
1,COCCCNCCCOc1ccc(Cl)cc1C(C)(C)C,-12.8%
2,CCOc1cc(C(=O)OCc2ccc([N+](=O)[O-])cc2)ccc1OCC(=O)N1CCOCC1,3.84%
3,C=CCc1cccc2cc(C(=O)NNC(=O)CC#N)c(=O)oc12,8.04%
4,Br.NC12CC3CC(C1)CC(O)(C3)C2,12.5%
5,Brc1ccc(-c2noc(CCc3ccccc3)n2)o1,5.88%
6,CCOc1ccc(C(C)=O)cc1CSc1nnc(-c2cccs2)n1CC1CCCO1 (centres unmarked),-10.1%
7,Cc1ccc(C2(C)NC(=O)N(CC(=O)Nc3cc(S(=O)(=O)N(C)C)ccc3C)C2=O)cc1 (centres unmarked),5.62%
8,COc1ccc(-c2[nH]nc(-c3ccccc3)c2-c2nc3ccccc3[nH]2)cc1,15.6%
9,Cc1ccc(C(=O)CCC(=O)NNC(=O)c2ccccc2O)cc1,8.71%
10,COc1ccc(NC(=O)CC(NCCc2ccccc2)C(=O)O)c(OC)c1 (centres unmarked),5.85%
11,CCOc1ccccc1N1CC(C(=O)N2CCN(Cc3ccc(C#N)cc3)CC2)CC1=O (centres unmarked),-43.4%
12,CCOC(=O)c1cnc(-c2ccccc2)nc1Oc1ccc(OC)cc1,11.8%
13,CSc1ccc(C#N)cc1NC(=O)c1ccccc1,11%
14,CC(O)c1cccc(NC(=O)CCCc2ccccc2)c1 (centres unmarked),15%
15,Cn1nnc(NCc2cc(Br)ccc2OCc2cccs2)n1,7.22%
16,C[C@H]1CCC/C=C/[C@@H]2C[C@H](O)C[C@H]2[C@H](O)/C=C/C(=O)O1 [56463468],15.9%
17,CC(C)SC1=NC(C)(C)C=C(/C=C/c2c(Cl)cccc2Cl)N1,7.09%
18,CCOc1ccc(/C=N/n2nnnc2N)cc1O,5.81%
19,O=C(COc1ccc(Cc2ccccc2)cc1)c1ccc(F)cc1,9.98%
20,O=c1c2ccccc2nnn1CSc1nnc(-c2ccco2)o1,1.47%
21,Nc1nc(-c2nonc2N)no1,6.05%
22,COc1ccc(NC(=O)c2ccc(-c3ccc(C)c4ccccc34)o2)cc1,3.11%
23,COCCN(C(=O)Cn1nnc2ccccc21)C(C(=O)NC1CCCC1)c1ccc(OC)cc1OC (centres unmarked),7.32%

row,SMILES,"hERG current change (%, negative = inhibition) at 1uM"
1,Cc1ccc(CNC(=O)c2ccc(C)c(S(=O)(=O)N3CCCCC3)c2)cc1,-3.75%
2,CSc1sc(C(=O)NCC2CC2)c(-c2cccs2)c1C#N,13.5%
3,CC(C)OC(=O)c1nnn(-c2nonc2N)c1CSc1ccccn1,2.14%
4,CC(C)CC(NC(N)=O)C(=O)NCCc1ccc(Cl)cc1Cl (centres unmarked),-0.28%
5,CCOc1ccccc1C(=O)NCC(=O)NCC(c1ccco1)N1CCCCC1 (centres unmarked),12.4%
6,COC(=O)c1sccc1NC(=S)N1CCC(C(N)=O)CC1,10.7%
7,COc1ccc(NC(=O)CCCNC(=O)Cn2cnc3sc(C)c(C)c3c2=O)cc1OC,9.95%
8,CCc1nc(SCC(=O)N2CCCc3ccccc32)c2oc3ccccc3c2n1,-13.1%
9,N/C(COc1cccc(Cl)c1)=N\O,9.2%
10,CC(C)(C)CC(=O)NC(=S)NCc1ccco1,11.4%
11,Cc1ccc(NC(CNS(=O)(=O)c2ccc(Cl)cc2)c2ccccc2)cc1 (centres unmarked),1.89%
12,COCCOC(=O)/C=C1/NC(=O)CS1,-0.415%
13,O=C(O)CC12CC3CC(C1)CC(n1ncc(NCc4ccco4)c(Cl)c1=O)(C3)C2,9.7%
14,O=C(CNC(=O)c1ccccc1)OCc1cc(=O)n2cc(Br)ccc2n1,-20.5%
15,CC(C)(Oc1ccc(Cl)cc1)C(=O)NCc1ccc(S(N)(=O)=O)cc1,8.83%
16,CC1=CCC2C(=O)N(c3ccc(Br)cc3C)C(=O)C2C1 (centres unmarked),-7.23%
17,Cc1ccc2oc(=O)c3cc(C(=O)NCCCN4CCCC(C)C4)sc3c2c1 (centres unmarked),10.8%
18,Br.CCCc1cc(-c2nc(-c3ccc(C)cc3)cs2)ccn1,1.37%
19,O=C(O)Cn1ncn(-c2ccc(OC(F)(F)F)cc2)c1=O,17.6%
20,COc1cc(-c2nnc(SCC(=O)Nc3ccc4c(c3)OCCO4)o2)cc(OC)c1OC,5.51%
21,COc1ccc2cc(C(=O)COC(=O)COc3ccc4c(C)cc(=O)oc4c3)ccc2c1,15.4%
22,O=C(N/N=C/c1ccc(-c2ccc(Br)cc2)o1)c1ccc2c(c1)OCO2,1.12%
23,COc1cc([N+](=O)[O-])cc(/C=C2/SC(=S)N(Cc3ccccc3)C2=O)c1O,16.1%

row,SMILES,"hERG current change (%, negative = inhibition) at 1uM"
1,COc1ccc(OC)c(C2C(C#N)=C(N)Oc3cc(N)ccc32)c1 (centres unmarked),9.59%
2,C/C(=N\Nc1cccc(C(=O)O)c1)c1ccc(Cl)s1,18.2%
3,C=COCCCNc1ncnc2sc(-c3ccccc3)cc12,15.7%
4,COC(=O)c1ccccc1NC(=O)C(C)Oc1ccccc1 (centres unmarked),13%
5,COc1ccc2[nH]cc(CCNC(=O)c3ccc([N+](=O)[O-])cc3)c2c1,3.4%
6,Cc1ccc(Nc2ccccc2N)cc1,7.42%
7,O=P(O)(O)Cc1c(Cl)cccc1Cl,7.74%
8,COC(=O)c1c(NC(=O)Nc2ccc(Cl)cc2)sc(C)c1C,6%
9,CC1CCCCC1NC(=O)CCCCn1c(=O)[nH]c2ccsc2c1=O (centres unmarked),20.2%
10,O=C(c1cc(-c2ccccc2)nc2ccccc12)N1CCN(c2ccccn2)CC1,1.88%
11,CN(O)/C=c1/ccc2c(n1)C(=O)C=CC=2,-4.54%
12,COc1cccc(S(=O)(=O)Nc2ccc(C(=O)NCc3ccco3)cc2)c1,13.6%
13,CCC(=O)N1CCN(C(=O)CC)C1c1ccccc1,6.92%
14,CN(c1ccccc1)S(=O)(=O)c1ccc(C(=O)Nc2ncccc2O)cc1,8.81%
15,CCOC(=O)c1cnn(-c2cccc(Cl)c2)c1N,-0.745%
16,C1=C(c2ccccc2)CCN(c2ncnc3nc[nH]c23)C1,-4.38%
17,Cc1ccccc1Cn1c(=O)c2c(nc3n2CCCN3Cc2ccccc2)n(C)c1=O,-4.58%
18,CC(C)(C)C1CCC(=NNC(=O)c2cc3c(s2)CCCC3)CC1 (centres unmarked),9.98%
19,Cc1cc2[nH]c(=O)c(=O)[nH]c2cc1S(=O)(=O)NC1CCCCC1C (centres unmarked),4.22%
20,CN(C)CCNC(=O)C(=O)Nc1cc2c3c(c1)CCN3C(=O)CC2,25.1%
21,O=C(O)c1ccccc1C(=O)NC1CCCc2ccccc21 (centres unmarked),7.62%
22,Cc1cccc(/C=N\NC(=O)c2sccc2-n2cccc2)c1,12.6%
23,COc1cccc(C(=O)NCC(c2cccs2)N2CCc3ccccc32)c1 (centres unmarked),9.51%

row,SMILES,"hERG current change (%, negative = inhibition) at 1uM"
1,CCOCC(=O)Nc1cccc(SC)c1,7.24%
2,c1cc2c(cc1-c1[nH]ncc1CN1C[C@H]3CC[C@H]1C3)OCO2,5.45%
3,O=C(CNC(=O)OCc1ccccc1)Oc1cc2oc(=O)cc(-c3ccccc3)c2cc1Cl,14.6%
4,O=C(COC(=O)COc1ccccc1)Nc1ncc([N+](=O)[O-])s1,8%
5,COc1ccc(-c2ccc3c(c2)S(=O)(=O)c2cccc(C(=O)NC4CCCC4)c2C3=O)cc1OC,10.5%
6,CCn1cc(C(=O)O)c(=O)c2cnc(N3CCN(C(=S)NC(=O)c4ccccc4)CC3)nc21,11.2%
7,CC(=O)c1c(C)nc2cc(Cl)ccc2c1N,-2.27%
8,Cc1cccc(CCNC(=O)C2CCN(S(=O)(=O)c3cccc4cccnc34)CC2)c1,16.6%
9,O=C(Cc1noc2ccccc12)NNC(=S)Nc1ccc(Cl)cc1,6.42%
10,Cc1ccccc1C(=O)c1cccn1CC(=O)N1CCCCC1,13.2%
11,COc1cc(S(=O)(=O)N2CCCCC2)ccc1NC(=O)c1ccccc1Cl,1.79%
12,Nc1c(Cl)cc(-c2cn(CCC(=O)O)c(-c3ccncc3)n2)cc1Cl,19.9%
13,COc1ccc(N=Nc2ccc(O)c3ncccc23)cc1,8.06%
14,CCN(C(=O)CSc1nnc(Cn2nnc3ccccc32)o1)c1nc(C)cs1,11.7%
15,CCOC(=O)c1c(N)sc(N)c1C(=O)OCC,7.28%
16,CCCc1nnc(NC(=S)Nc2ccccc2)s1,12.5%
17,CCCC[C@@H]1C[C@H]1[C@@H](NC(=O)c1ccco1)c1ccc(C(=O)OC)cc1,6.15%
18,COc1cccc(C(=O)N(Cc2cccs2)C2CCS(=O)(=O)C2)c1 (centres unmarked),13.2%
19,Cc1ccccc1NC(=S)N(Cc1ccccc1)Cc1cccnc1,5.75%
20,COc1ccc(NC(=O)CN(C)C(=O)C2CCCO2)cc1 (centres unmarked),7.06%
21,CCOc1ccc(CNC(=O)Cn2c(=O)c3cccn3c3ccccc32)cc1,11.7%
22,O=C(c1cc2ccccc2oc1=O)N1CCC2(CC1)OCCO2,1.05%
23,COCCCn1c(C)cc(C(=O)CN2c3cccc4cccc(c34)S2(=O)=O)c1C,0.435%
